Experimental data published in the supplement of paper PMC3334620.
In all, about 33,000 sequences were measured (“E-score (-0.5 to 0.5)”: median about -0.054, highest 2% from about 0.35 on). Some of the results follow.

target: T1, Stb5 (UniProt P38699); assay: PBM E-score (8-mer binding enrichment) (E-score (-0.5 to 0.5)); higher = stronger / more preferred TF binding; most listed sequences are background and not binding sites; details: protein concentration: 200 nM; construct: GST-full length
T1 sequence: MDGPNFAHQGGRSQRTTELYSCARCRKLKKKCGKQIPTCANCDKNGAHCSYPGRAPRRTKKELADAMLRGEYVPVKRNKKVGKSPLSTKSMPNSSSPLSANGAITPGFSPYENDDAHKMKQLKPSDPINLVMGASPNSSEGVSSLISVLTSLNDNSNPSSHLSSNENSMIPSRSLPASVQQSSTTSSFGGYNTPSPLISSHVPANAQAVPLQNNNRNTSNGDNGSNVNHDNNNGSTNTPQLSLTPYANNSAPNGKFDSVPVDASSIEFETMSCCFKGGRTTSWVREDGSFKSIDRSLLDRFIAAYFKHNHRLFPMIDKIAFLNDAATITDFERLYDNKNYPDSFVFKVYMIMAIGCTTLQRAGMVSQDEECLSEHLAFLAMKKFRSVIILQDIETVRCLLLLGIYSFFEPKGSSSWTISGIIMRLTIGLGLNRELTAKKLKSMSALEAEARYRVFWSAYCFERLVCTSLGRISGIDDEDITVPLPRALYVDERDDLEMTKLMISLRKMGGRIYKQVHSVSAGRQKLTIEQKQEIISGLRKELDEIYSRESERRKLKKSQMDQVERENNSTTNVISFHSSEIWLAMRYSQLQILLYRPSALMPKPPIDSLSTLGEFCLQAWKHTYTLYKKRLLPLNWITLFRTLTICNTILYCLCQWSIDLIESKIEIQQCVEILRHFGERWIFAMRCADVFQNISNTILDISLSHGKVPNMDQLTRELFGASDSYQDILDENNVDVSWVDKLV
Procedure, shortened: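 Universal all-10-mer Agilent arrays, fresh or stripped once, were converted to double-stranded form by primer extension. GST-tagged yeast transcription factors from PURExpress in vitro transcription/translation, full-length or DNA-binding domain only, were applied at about 100-200 nM and detected with fluorescent anti-GST. After masliner normalisation, the Universal PBM Analysis Suite scored each ungapped eight-base word together with its reverse complement by E-score.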

Sequence	PBM E-score
CTCTGAAG	-0.182
CAAGACCG	0.312
ACTGCCTC	-0.165
TGGCCTAA	-0.214
AACCGTCT	0.0096
ATCATCCA	-0.198
AAAACGTC	-0.179
CACATCGC	-0.138
TATGTACA	-0.21
GATAGTAA	0.0825
GTCAAAAC	0.236
AGGCCCGC	0.36
AAAGCCAC	-0.1
CCCACTAG	-0.117
GTGAGCTA	-0.357
TAGAAGAA	-0.0144
AGTTTTAT	-0.00831
CCGAAGTA	0.145
CGCCATAC	0.0836
CAAATAAC	0.119
AATCAACT	-0.043
CGTTCTTA	0.135

Sequence	PBM E-score
CAATGCCA	-0.302
ACATCGCC	0.21
AACCATTC	-0.0229
TGGCATAA	-0.199
CGACATAG	-0.141
GGGGCGAC	-0.0307
CGTACGCA	-0.0495
TCCTGCAA	-0.17
CTGGAGAC	-0.149
TGACTGCA	-0.31
AAAAATTG	-0.0477
AAAGGACG	-0.117
TATCTAAA	-0.014
AGATTGTA	-0.0889
AAAAAGCC	0.302
ATGGGGAG	-0.347
GGTTTCGA	0.0545
CCGGTAAG	0.236
TAACGCGA	-0.0498
GCGCTCTA	0.00012
GATCGCGA	-0.0319
TGACGAAA	-0.149

Sequence	PBM E-score
CTGTACAA	-0.115
TACGGAGA	0.198
GTAGGTGA	0.0842
CGTAAGCC	0.0188
TCAGATGA	-0.124
AGTAATAG	-0.23
AGGGGCCA	-0.19
CGATGGCC	0.0541
CTCGACTA	-0.186
CAGGGCAC	0.00217
GCAGTACC	0.00183
ATCTGTAG	-0.118
GCCACAGC	-0.304
TACACGGA	0.114
AAGCGACG	0.0896
AACTCAAA	-0.125
GCTCGTAA	-0.138
GCCACTAA	-0.147
ACTCGGCA	0.00054
GCACACAA	-0.107
AAGTGTCA	-0.203
CAAATGTG	0.0201

Sequence	PBM E-score
AAGTGAAC	-0.129
AGGGAGAT	-0.331
ACAAAAGC	0.0644
GTGCTCCA	-0.24
ATGATACC	0.253
AACGCTGC	-0.117
ACTGACTA	-0.227
AAGCCGAA	-0.0397
GTTTAATA	-0.0762
ACCTCTAT	-0.163
CGCCGCCA	0.348
CCGTACCC	0.0308
AAAACCTA	-0.149
AAGTAAAA	-0.0754
AATCCAAG	-0.243
TCCGGACA	0.259
TACCTATA	-0.234
AAACGCTA	-0.106
GACGACAA	-0.164
GTGTTACA	0.276
